# According to PubChem BioAssay AID1030 (National Center for Advancing Translational Sciences (NCATS), 2008):
# Screen size: about 220,000 compounds; about 16,000 (7.3%) were called active. The inconclusive results got no clear call from the source; some entries with a clear call stand among them for comparison. Calls follow the shape of the dose curve; as a rule, active = well fitted inhibition curve with a large enough effect (not every such curve was filed as active); inconclusive = small, poorly fitted or top-dose-only effect, or another doubt; inactive = no such curve, though single readings can be large or run the other way. No potency is given beside an inconclusive call; the fits are too rough.
# Target: Aldehyde dehydrogenase 1A1 (Homo sapiens) (UniProt P00352)
# Assay: qHTS Assay for Inhibitors of Aldehyde Dehydrogenase 1 (ALDH1A1);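 as to activity, negative = inhibition: plate controls were no enzyme wells and a reference inhibitor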
# Settings: Purified ALDH1A1, NADH fluorescence, propionaldehyde substrate; series mostly up to 75.3 µM
# Potency is read from the fitted curve at half-maximal effect; tags tell the direction and shape of the fitted curve.
# Chain of UniProt P00352 (P00352 whole entry, looked up): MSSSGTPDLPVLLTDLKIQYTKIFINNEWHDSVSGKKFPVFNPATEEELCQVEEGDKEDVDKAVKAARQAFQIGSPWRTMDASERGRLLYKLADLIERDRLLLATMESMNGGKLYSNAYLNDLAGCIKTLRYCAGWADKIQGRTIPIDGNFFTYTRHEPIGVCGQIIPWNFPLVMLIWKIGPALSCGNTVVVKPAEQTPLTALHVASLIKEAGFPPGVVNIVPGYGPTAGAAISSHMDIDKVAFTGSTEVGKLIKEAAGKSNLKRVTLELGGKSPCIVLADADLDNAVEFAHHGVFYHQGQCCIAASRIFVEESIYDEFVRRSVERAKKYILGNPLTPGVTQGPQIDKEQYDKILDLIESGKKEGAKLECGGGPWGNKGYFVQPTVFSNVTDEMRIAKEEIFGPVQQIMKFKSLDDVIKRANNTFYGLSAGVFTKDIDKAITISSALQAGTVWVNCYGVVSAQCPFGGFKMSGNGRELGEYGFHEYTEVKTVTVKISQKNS
Structure (SMILES),Potency,"activity, negative = inhibition"
Cc1ccc(C(=O)c2no[n+]([O-])c2C(=O)c2ccc(C)cc2)cc1,active: 0.501 µM,–
O=C(CSc1ncnc2c1oc1ccccc12)OCc1ccccc1,inactive,–
CCS(=O)(=O)n1nc(NCc2cccc(OC)c2)nc1NCc1cccc(OC)c1,"inconclusive [inhibitor, single point]",–
COc1cc(CNCc2ccccn2)ccc1OCc1ccc(Cl)cc1Cl,inactive,–
Cn1c(=O)n(C)c2cc(/C=C(/C#N)C(=O)NCc3ccco3)ccc21,"inconclusive [inhibitor, single point]",–
CC1CCC/C(=N/NC(=O)c2ccccc2-n2cccc2)C1 (configuration not stated),"inconclusive [inhibitor, single point]",–
c1ccc(Cn2c(SCc3nc4ccccc4s3)nnc2-c2ccco2)cc1,"inconclusive [inhibitor, single point]",–
CCOC(=O)CNC(=O)CSc1ncnc2c1cnn2Cc1ccccc1,"inconclusive [inhibitor, single point]",–
c1ccc(N2CCN(c3nc4ccccc4[nH]3)CC2)nc1,inactive,–
COc1cc(C(=O)O/N=C(\N)Cc2ccc([N+](=O)[O-])cc2)cc(OC)c1OC,"inconclusive [inhibitor, single point]",–
Cc1cccc(NC(=O)c2onc3c2CCCC3)n1,active: 22.4 µM,–
Cc1ccc(NC2=C/C(=N/S(=O)(=O)c3cccs3)c3ccccc3C2=O)cc1,inactive,–
CCOC(=O)CSCC(=O)N1N=C(c2cccs2)CC1c1ccc(F)cc1 (configuration not stated),"inconclusive [inhibitor, partial curve]",–
CCOC(=O)c1c(C)cc(O)c(C)c1O,inactive,–
CCc1ccc(OCC(=O)NC(=S)Nc2ccc(S(=O)(=O)NC3CCCCC3)cc2)cc1,"inconclusive [inhibitor, single point]",–
COC(=O)[C@@]1(Cc2ccccc2)[C@H]2c3cc(C(=O)N(C)C)n(Cc4ccccn4)c3C[C@H]2CN1C(=O)c1ccccc1,inactive,–
CC(C)(Cl)C1Cc2cc3ccc(=O)oc3cc2O1 (configuration not stated),"inconclusive [inhibitor, partial curve]",–
COc1ccc(C(=O)Nn2cnnc2)c(OC)c1,inactive,–
C/C(=N/NC(=O)c1cccs1)c1ccc(N2CCOCC2)cc1,"inconclusive [inhibitor, single point]",–
O=C1C=C(O)CC(c2ccc(Cl)cc2)C1 (configuration not stated),"inconclusive [inhibitor, partial curve]",–
Oc1ccc(/C(Cc2ccccn2)=N\Nc2ccccc2)c(O)c1,active: 17.8 µM,–
COc1ccc2nc(Nc3ccccc3)sc2c1,inactive,–
N#Cc1ccc(CS(=O)(=O)c2ccccc2)cc1,inactive,–
CC1CCc2ccccc2N1C(=N)N(C)C (configuration not stated),inactive,–
CC(C)CC(=O)N1CCN(C(=O)c2ccco2)CC1,"inconclusive [inhibitor, single point]",–
O=C(c1ccc(S(=O)(=O)N2CCCCC2)cc1)N1CCc2ccccc2C1,"inconclusive [inhibitor, single point]",–

Structure (SMILES),Potency,"activity, negative = inhibition"
CN(C)CCCNC(=O)/C(=C\c1ccc(-c2cccc([N+](=O)[O-])c2)o1)NC(=O)c1ccccc1,"inconclusive [inhibitor, single point]",–
CS(=O)(=O)N1N=C(c2cccs2)CC1c1ccc(Cl)o1 (configuration not stated),inactive,–
CCOC(=O)c1c(NC(=S)Nc2cccc(C)c2)sc2c1CC(C)(C)SC2,active: 3.98 µM,–
CCCn1c(SCC(=O)c2cc(OC)ccc2OC)nnc1-c1ccco1,inactive,–
Cc1cccc(NC(=S)N2CCN(Cc3ccccc3)CC2)c1C,"inconclusive [inhibitor, single point]",–
Cc1cc(=O)oc2cc(OC(=O)CCN3C(=O)c4ccccc4C3=O)ccc12,"inconclusive [inhibitor, partial curve]",–
O=C(CSc1ccccn1)Nc1nc2ccc(Br)cc2s1,inactive,–
Cc1ccc(S(=O)(=O)N(CC(=O)N=Nc2c(O)[nH]c3ccccc23)c2ccc(C)c(C)c2)cc1,"inconclusive [inhibitor, single point]",–
COC(=O)c1cc(OC)c(OC)cc1NC(=O)CSc1nnnn1Cc1ccccc1,active: 12.6 µM,–
O=S(=O)(Cc1ccccc1)c1cnc2ccccc2n1,"inconclusive [inhibitor, single point]",–
CC(C)(C)c1ccc(C(=O)NC(=S)NCc2cccnc2)cc1,"inconclusive [inhibitor, single point]",–
COc1cc(O)oc1C=Nc1ccc(Cl)cc1,"inconclusive [inhibitor, single point]",–
CCCCc1ccc(NC(=S)Nc2cccnc2)cc1,"inconclusive [inhibitor, single point]",–
CCCCN(C)C(=O)c1cn(CC)c2nc(C)ccc2c1=O,inactive,–
COc1cc(OC)c(-c2nn3c(-c4ccco4)nnc3s2)cc1OC,"inconclusive [inhibitor, partial curve]",–
CCOC(=O)C1CCN(C(=O)Cn2cc3c(n2)CCC(C)C3)CC1 (configuration not stated),inactive,–
O=C1CC(N(C(=O)c2ccco2)c2cccc(Cl)c2)C(=O)N1c1cccc(Cl)c1 (configuration not stated),"inconclusive [inhibitor, partial curve]",–
CCN(CCCc1ccccc1)CCCc1ccccc1,inactive,–
O=C(c1ccccc1)N1CCN(C2CCCCC2)CC1,"inconclusive [inhibitor, single point]",–
Cc1ccc(C2=NN(CC(=O)NCc3ccccn3)C(=O)CC2)cc1,inactive,–
COc1cc(Cl)cc(C2NC(=O)NC(C)=C2C(C)=O)c1OCC(=O)O (configuration not stated),active: 2.24 µM,–
COc1ccccc1NC(=O)CCc1nc(-c2cccs2)no1,"inconclusive [inhibitor, single point]",–
Cc1ccccc1NCC(=O)N/N=C/c1c(C)c(C(=O)c2ccc(Cl)cc2)n2ccccc12,"inconclusive [inhibitor, partial curve, poor fit]",–
COC(=O)c1c(NC(=O)c2nc3ccccc3s2)sc2c1CCN(C(C)=O)C2,active: 12.6 µM,–
C[C@H](CC(=O)O)C(C(=O)O)C(=O)O,–,inactive: -2.93% [at 13.5 µM]
S=C1NCCOCCOCCNC(=S)N2CCOCCOCCN1CCOCCOCC2,inactive,–

Structure (SMILES),Potency,"activity, negative = inhibition"
Cc1nc2nc(-c3ccco3)[nH]n2c(=O)c1Cc1ccccc1,"inconclusive [inhibitor, single point]",–
Cc1ccc(-c2nnn(CC(=O)N(Cc3cccs3)C(C(=O)NC(C)(C)C)c3ccco3)n2)o1 (configuration not stated),"inconclusive [inhibitor, single point]",–
CC1(C)CC(=O)C2=C(C1)Nc1ncnn1C2c1cccs1 (configuration not stated),"inconclusive [inhibitor, single point]",–
CN(C)Cc1ccccc1-c1nccc(NC2CC2)n1,inactive,–
CCCC(=O)NCCCc1nc2ccccc2[nH]1,inactive,–
CCOC(=O)c1ccc(NC(=O)Cn2nnc(-c3ccccc3F)n2)cc1,inactive,–
COc1ccccc1-c1cnnc(N/N=C/c2ccc(-c3cccc(Br)c3)o2)n1,inactive,–
CCOc1ccc(C(C)=O)cc1COc1ccc(-n2cnnn2)cc1,inactive,–
CCOCC(=O)Nc1cccc(C(=O)OCC)c1,"inconclusive [inhibitor, single point]",–
CC1(C)CC(=O)C=C(NC2CCCCCCC2)C1,inactive,–
Nc1ccccc1-c1nnc(-c2ccc(-c3ccccc3)cc2)o1,"inconclusive [inhibitor, partial curve]",–
Cc1ccc(S(=O)(=O)Nc2cccc(N(C)S(C)(=O)=O)c2)cc1[N+](=O)[O-],active: 15.8 µM,–
CSCCC(=O)Nc1cc(S(=O)(=O)N2CCOCC2)ccc1N1CCN(C)CC1,inactive,–
CCOC(=O)c1cc2c(ccn2-c2ccc(F)cc2)n1CC(=O)N(CC)CC,"inconclusive [inhibitor, single point]",–
O=C1C2C(c3ccccc3)=NN(c3ccccc3)C2C(=O)N1c1ccccc1 (configuration not stated),"inconclusive [inhibitor, partial curve]",–
CC(=O)N1CCCc2cc(S(=O)(=O)NC(C(=O)NC3CCCCC3)C(C)C)ccc21 (configuration not stated),active: 7.08 µM,–
CC(C)c1ccc2[nH]c(O)c(N=NC(=O)c3cccc(S(=O)(=O)Nc4ccccc4Cl)c3)c2c1,inactive,–
CCOC(=O)c1cc(-c2cccs2)nc2c1c(C)nn2-c1ccccn1,"inconclusive [inhibitor, partial curve]",–
CC1(C)CC(=O)c2cc(C(=O)NCc3ccco3)c(=O)n(-c3ccc(Cl)cc3)c2C1,"inconclusive [inhibitor, single point]",–
Cc1[nH]c(=O)[nH]c(=O)c1S(=O)(=O)N1c2ccc(F)cc2CCC1C (configuration not stated),"inconclusive [inhibitor, partial curve]",–
Cc1cc(C(=O)N/N=C2\CC(=O)CC(C)(C)C2)c(C)n1-c1ccccc1,"inconclusive [inhibitor, single point]",–
CC1CCC(C(C)C)C(OC(=O)C2=C3c4ccccc4S(=O)(=O)N3CC2)C1 (configuration not stated),"inconclusive [inhibitor, single point]",–
O=C(NC1CCS(=O)(=O)C1)c1cccnc1 (configuration not stated),"inconclusive [inhibitor, single point]",–
O=C(NCCO)c1c(O)c2cccc3c2n(c1=O)CC3,"inconclusive [inhibitor, single point]",–
CCCCCCNc1cc2n(c(=O)n1)CCc1cc(OC)c(OC)cc1-2,"inconclusive [inhibitor, partial curve]",–
